Results reported in US10889573B2, “Anthelmintic quinoline-3-carboxamide derivatives” (Bayer Animal Health GMBH, priority 2016, dated 2021).
Read-outs that look alike come from different tables or passages of the source. Some entries share one result that the patent states for a list of compounds. At least one structure is not confirmed: it was looked up by name or label, or the drawing left a doubt.

Legend:
[1] = tested on: Nippostrongylus brasiliensis; experiment: In vitro assay 2: Nippostrongylus brasiliensis (NIPOBR), acetylcholine esterase readout; settings: 1 μg/ml
Outline: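 Readout was acetylcholine esterase activity released into the medium, compared with negative control, after exposing adult worms to compounds at final 10 ppm (10 μg/ml) or 1 ppm (1 μg/ml). Worms were first washed in antibiotic/amphotericin B-containing saline; compounds were dissolved in DMSO.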

Cooperia curticei = settings: after 5 days
Haemonchus contortus = settings: after 5 days

| Compound | activity (reduction of AChE compared to negative control) [1] | activity (larval mortality) (Cooperia curticei; 4 ppm) | activity (larval mortality) (Cooperia curticei; 20 ppm) | activity (larval mortality) (Haemonchus contortus; 4 ppm) | activity (larval mortality) (Haemonchus contortus; 20 ppm) |
| --- | --- | --- | --- | --- | --- |
| N#Cc1ccc2c(N3CCOCC3)c(C(=O)N[C@H]3CCOc4ccccc43)cnc2c1-c1cc(Cl)ccc1F [Example 642] | higher than 80% | 100% | 100% | 80% | 90% |
| N#Cc1ccc2c(N3CCOCC3)c(C(=O)N[C@H]3CCOc4ccccc43)cnc2c1-c1cc(Cl)cc(Cl)c1 [Example 652] | higher than 80% | 100% | 100% | 100% | 100% |
| CCc1c(C(=O)N[C@H]2CCOc3ccccc32)cnc2c(-c3cc(F)cc(F)c3F)cccc12 [Example 655] | higher than 80% | 100% | 100% | 100% | 100% |
| N#Cc1ccc(-c2cccc(Cl)c2Cl)c2ncc(C(=O)N[C@H]3CCOc4ccccc43)c(N3CCOCC3)c12 [Example 657] | higher than 80% | 100% | 100% | 80% | 90% |
| CN(C)c1c(C(=O)N[C@H]2CCOc3ccccc32)cnc2c(-c3cc(Cl)ccc3F)ccc(C#N)c12 [Example 658] | higher than 80% | 100% | 100% | 100% | 100% |
